Measured values taken from paper PMC4336329 (PLoS ONE, 2015).
The whole screen tested about 310,000 compounds, of which about 14,000 (4.5%) showed an effect of 50% or more. Effects have a minus sign here. This is one part of the list.

The compounds below were run against human ether-à-go-go-related gene (hERG) potassium channel (human, UniProt Q12809) (assay: primary screen, population patch clamp on CHO cells stably expressing hERG).
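Also: peak tail current of the secondary pulse compared with the same well before compound.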

Chain of human ether-à-go-go-related gene (hERG) potassium channel (Q12809 whole entry, looked up): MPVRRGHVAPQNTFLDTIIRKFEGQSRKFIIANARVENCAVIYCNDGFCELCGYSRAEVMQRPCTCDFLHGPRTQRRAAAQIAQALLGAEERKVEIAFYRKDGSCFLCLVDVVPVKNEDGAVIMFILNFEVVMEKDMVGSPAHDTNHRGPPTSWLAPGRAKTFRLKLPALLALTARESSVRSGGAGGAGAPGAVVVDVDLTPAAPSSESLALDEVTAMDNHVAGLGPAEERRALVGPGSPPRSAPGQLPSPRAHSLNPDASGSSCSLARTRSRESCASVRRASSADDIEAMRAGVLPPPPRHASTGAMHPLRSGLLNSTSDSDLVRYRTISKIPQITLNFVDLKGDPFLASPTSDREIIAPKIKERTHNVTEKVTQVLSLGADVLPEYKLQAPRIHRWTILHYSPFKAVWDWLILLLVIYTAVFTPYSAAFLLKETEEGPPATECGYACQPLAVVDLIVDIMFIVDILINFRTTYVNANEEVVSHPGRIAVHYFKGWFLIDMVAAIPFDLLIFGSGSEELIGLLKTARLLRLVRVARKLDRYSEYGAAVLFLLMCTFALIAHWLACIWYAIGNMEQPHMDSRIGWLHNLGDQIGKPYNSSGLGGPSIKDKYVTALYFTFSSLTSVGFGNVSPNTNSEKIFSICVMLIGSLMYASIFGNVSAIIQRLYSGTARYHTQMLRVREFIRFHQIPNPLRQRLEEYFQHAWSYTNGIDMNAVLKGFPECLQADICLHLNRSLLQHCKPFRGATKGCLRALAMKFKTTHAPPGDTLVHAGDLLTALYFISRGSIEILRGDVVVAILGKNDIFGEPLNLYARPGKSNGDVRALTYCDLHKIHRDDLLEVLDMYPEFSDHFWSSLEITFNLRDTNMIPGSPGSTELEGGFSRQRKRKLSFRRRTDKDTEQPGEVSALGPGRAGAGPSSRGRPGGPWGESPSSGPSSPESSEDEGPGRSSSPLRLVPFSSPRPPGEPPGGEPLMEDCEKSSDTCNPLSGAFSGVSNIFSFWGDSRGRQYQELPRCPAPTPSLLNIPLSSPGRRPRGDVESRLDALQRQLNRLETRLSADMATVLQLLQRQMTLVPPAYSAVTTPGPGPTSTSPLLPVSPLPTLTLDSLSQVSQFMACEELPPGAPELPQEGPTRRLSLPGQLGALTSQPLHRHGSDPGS

SMILES	hERG current change (%, negative = inhibition) at 10uM
CC1(C)N=C(N)NC(Nc2ccccc2Cl)=N1	20.9%
CCn1cc(C(=O)NCc2cccs2)c(=O)c2cc(S(=O)(=O)N3CCOCC3)ccc21	-20.3%
O=C(CCC(=O)N(CC(=O)NC1CCCCC1)Cc1cccs1)Nc1ccccn1	-8.72%
COc1ccc(C)cc1NS(=O)(=O)c1cn(C)nc1C	0.63%
CCCC1CCC(C2=N/C(=C\c3ccc(OC)c(OC)c3)C(=O)O2)CC1 (stereo not drawn)	-11.5%
O=C(COc1ccc2ccccc2c1)N1CCN(C(=O)c2ccco2)CC1	-61.7%
c1ccc(-c2cc3c(N4CCCC4)ncnc3s2)cc1	0.659%
Cc1ccc(/C=C2\SC(=S)N(CCC(=O)NNC(=O)c3ccc(O)cc3)C2=O)cc1	9.84%
Cc1cc(C(=O)N(C)CC2CCCN(CCc3ccc(F)cc3)C2)c(C)o1 (stereo not drawn)	-75.7%
CC1CCN(C(=O)C(Cc2ccccc2)NS(=O)(=O)c2ccc3c(c2)oc(=O)n3C)CC1 (stereo not drawn)	-2.38%
Cc1ccc(-c2ccc(S(=O)(=O)N3CCN(C)CC3)cc2)cc1	-11.8%
Nc1ccn([C@H]2CC[C@@H](CO)O2)c(=O)n1	17.5%
O=C(CC(=O)Nc1nc(C23CC4CC(CC(C4)C2)C3)cs1)NCCO	5.3%
C/C(=N\OCc1ccccc1C#N)c1cc2ccccc2o1	0.146%
COc1ccc(C(=O)NC(C)c2ccc(-n3ccnc3)cc2)c(OC)c1OC (stereo not drawn)	-53.1%
Cc1ccc(S(=O)(=O)NCCOc2nc(N(C)C)nc(N3CCOCC3)n2)cc1	-1.34%
Cc1cccc(NC(=O)c2cc(N3CCOCC3)nc3ccccc23)c1	2.69%
CCOC(=O)c1c(C)c(C(=O)NC(C)COC)c(C)n1C (stereo not drawn)	16.1%
CC1CCCC(C)N1C(=C(Cl)Cl)C(=C1SCCS1)[N+](=O)[O-] (stereo not drawn)	16.7%
CN(CCc1cnn(C)c1)Cc1cn[nH]c1-c1ccc(-c2ccccc2)cc1	-66.6%
COc1cc(C(=O)NCC(=O)NCC(c2ccco2)N2CCCCC2)cc(OC)c1OC (stereo not drawn)	13.6%
Cc1ccc(C(=O)NNC(=O)C(NC(=O)c2cccc(C)c2)C(C)C)cc1 (stereo not drawn)	11.9%

SMILES	hERG current change (%, negative = inhibition) at 10uM
COc1ccc(CNC(=O)CCN2C(=O)c3ccccc3S2(=O)=O)cc1	-15.6%
Nc1nonc1-n1nnc(C(=O)N/N=C/c2ccncc2)c1-c1cccs1	-2.75%
O=C1OC(NC(=O)c2ccccc2)C(n2cc(CO)nn2)=C1Cl (stereo not drawn)	0.549%
Cc1ccc(C(=O)N2CC(C)SC2=Nc2cccc(S(=O)(=O)N(C)C)c2)cc1 (stereo not drawn)	-34.4%
CC(=O)N1CCCc2cc(S(=O)(=O)N3CCCC(C(=O)NCc4ccccc4Cl)C3)ccc21 (stereo not drawn)	-28.8%
CCOc1ccccc1C(=O)OCC(=O)NCC1CCCO1 (stereo not drawn)	16.7%
COc1ccccc1/C=C(\NC(=O)c1cccc(C)c1)C(=O)Nc1ccccn1	11.7%
Cc1ccc(Oc2ccc(Cl)cc2NC(=O)c2cnccn2)cc1	-2.52%
C/C(=N\NS(=O)(=O)c1ccc(C)c([N+](=O)[O-])c1)c1ccc2c(c1)OCO2	-4.81%
Cc1noc(/C=C/N(C)C)c1S(=O)(=O)N1CCCC(C(=O)N2CCCCC2)C1 (stereo not drawn)	7.66%
Cc1ccc(NC(=O)CSCc2ccc(F)cc2)cc1	-3.44%
COc1cccc(N2CCN(c3ccc4nnc(CCC(=O)Nc5ccc(C)cn5)n4n3)CC2)c1	-30.5%
COCCCN(C(=O)Nc1ccc(C)c(C)c1)C(C)c1ccccn1 (stereo not drawn)	7.59%
CC(C)CNC(=O)C(=O)NCC1OCCN1S(=O)(=O)c1cccs1 (stereo not drawn)	2.31%
N#CC1(NC(=O)COc2ccc(S(=O)(=O)N3CCCC3)cc2[N+](=O)[O-])CCCCC1	-0.702%
COc1ccc(Cl)cc1N(CC(=O)NCCSCc1ccccc1)S(C)(=O)=O	-7.08%
CN(C)CCC=C1c2ccccc2C=Cc2ccccc21.Cl	-25.4%
COc1ccc(CNC(=S)Nc2ccc3nc(N4CCN(C)CC4)cc(C)c3c2)cc1	-51.1%
O=[N+]([O-])c1ccc(C(O)CN2CCN(C/C=C/c3ccccc3)CC2)cc1 (stereo not drawn)	-76.9%
Cc1c(C(=O)/C=C/N(C)C)nnn1-c1ccc(Cl)cc1C#N	18.9%
Cc1ccccc1Cn1c(C)cc(C)c(C#N)c1=O	6.39%
O=C(NCc1ccc(F)cc1)C1CC(=O)N(C2CCCC2)C1 (stereo not drawn)	8.22%

SMILES	hERG current change (%, negative = inhibition) at 10uM
Cc1oc(-c2ccc(Cl)cc2)cc1C(=O)/C(C#N)=C/Nc1ccccc1	-2.96%
Cc1ccc(OCCn2c(C)c(/C=N/n3cnnc3)c3ccccc32)cc1	13.5%
C/C(=C\c1ccccc1)C(=O)N1CCN(Cc2ccc3c(c2)OCO3)CC1	-51.6%
Cc1ccc(/C=N/NC(=O)Cc2ccc(Cl)cc2)s1	-8.57%
Cc1nnc(SC(C)C(=O)NC2CCCCC2C)s1 (stereo not drawn)	5.57%
CC(Oc1cc2oc(=O)c3c(c2cc1Cl)CCC3)C(=O)NCCN1CCOCC1 (stereo not drawn)	-5.06%
CC(=O)c1c(N2CCOCC2)[nH]c(-c2ccccc2)nc1=S	12.2%
CCC(=O)N1c2ccc(S(=O)(=O)CCC(=O)NCCC3=CCCCC3)cc2CC1C (stereo not drawn)	-9.97%
O=c1nc(SCc2ccc(Cl)cc2)nc(-c2ccccc2)[nH]1	17%
COc1ccccc1C(=O)NCC(=O)NNc1ncnc(N)c1[N+](=O)[O-]	14.1%
CCC(C)NC(=S)NNC(=O)c1ccncc1 (stereo not drawn)	13.9%
Cc1nnc2ccc(-c3cccc(NC(=O)c4ccco4)c3)nn12	-5.08%
Cc1ccc(-c2nnc(-n3nc(C)cc3C)c3ccccc23)cc1	2.08%
COc1cc2c(cc1OC)C(=O)N(C)CC2	6%
COc1ccccc1N1CCN(C(=O)CCCCn2c(=O)[nH]c3ccsc3c2=O)CC1	-18.2%
O=C(O/N=C\c1ccc(N2CCOCC2)c([N+](=O)[O-])c1)c1ccc(F)cc1	-6.14%
O=C(NC1CCCC1)C(c1ccccn1)N(C(=O)c1csnn1)C1CCCCC1 (stereo not drawn)	-15.9%
CC(C)(O)C(=O)N=Nc1c(O)[nH]c2ccccc12	19.7%
CCN(C(=O)CSc1nnc(COc2cccc(C)c2)o1)c1nc(C)cs1	-2.29%
O=C(Nc1ccccc1N1CCOCC1)c1cccc(Oc2ccccc2)c1	3.95%
CCOC(=O)NN=C1c2ccccc2-c2ccccc21	-0.0609%
Cc1cc(-n2c(C)cc(C(=O)CSc3[nH]c(=O)cc(C(F)(F)F)c3C#N)c2C)no1	8.81%

SMILES	hERG current change (%, negative = inhibition) at 10uM
Cc1ccccc1Nc1nc(N)nc(CCl)n1	10.5%
Oc1ccc(/C=N/Nc2ccc3ccccc3c2)c(O)c1	3.59%
C=CCNCCOc1ccc(C(C)(C)c2ccccc2)cc1.O=C(O)C(=O)O	-5.93%
COC(=O)c1c(NS(=O)(=O)Cc2ccccc2)sc2c1CCCC2	12.2%
Cc1ccc(C(=O)N[C@H](C(=O)Nc2ccc(F)cc2)C(C)C)cc1	17.5%
CC(C)NC(=S)N1CCCN(c2ncccc2[N+](=O)[O-])CC1	8.55%
Cc1nonc1C1CCCN1C(=O)c1cc(COc2ccc(F)cc2Cl)on1 (stereo not drawn)	10.8%
Cc1c(Br)c(=O)[nH]c(=O)n1COCc1ccccc1	-5.85%
CC1=CC(=O)OC2CC3OC4C[C@@H](C)C5OC6CC7O[C@]8(C)C/C=C\C9OC%10CC%11OC(CC(C)CO)CC(O)[C@]%11(C)OC%10CC9OC8C[C@]7(C)O[C@]6(C)CCC5OC4C[C@]3(C)OC12 (stereo partly drawn)	9.17%
CCN(CC)CCCNC(=O)/C=C/C(=O)O	-1.15%
COc1c(O)ccc2c1-c1c3c(cc4c1C(C2)N(C)CC4)OCO3 (stereo not drawn)	-28.7%
O=C(Nc1ccc2nc3n(c(=O)c2c1)CCCCC3)c1ccccc1[N+](=O)[O-]	-16%
Cc1ccc(C(=O)N2CCN(c3ncc(C(F)(F)F)cc3Cl)CC2)s1	-59.8%
COc1ccc(C(C#N)N2CCCCCC2)cc1OC (stereo not drawn)	9.63%
COc1ccccc1N(C)S(=O)(=O)c1ccc(C(=O)Nc2ccc3nc(C)sc3c2)cc1	11.6%
O=C(Cn1c(=O)n(CC(=O)N2CCCCC2)c(=O)c2sccc21)NCc1ccccc1	17%
COCC(C)N1CCC(Oc2ccc(C(=O)N3CCCC3)cc2)CC1 (stereo not drawn)	5.11%
Cc1cc(N=Nc2ccc3ccccc3c2)ccc1O	4.25%
Cc1ccc2c(ccn3cc4c(c(=O)n(C)c(=O)n4C)c23)c1	17.8%
CCOc1ccc(C(=O)Nc2ccc(C(=O)N3CCOCC3)cc2)c(OCC)c1	1.54%
O=C(Nc1cc2c(cc1Br)OCCCO2)c1ccccc1	-1.48%
